According to article PMC5895051:
Results are given in words; binding and its absence hold for the method and conditions named. Binding seen in cells or lysates may run through a third protein. Some binding calls cover weakened binding; strength is not graded here. For part of these data: Sequences can lack the tags named with a protein.

Sequences of proteins named here, by UniProt entry; tags and fusion partners are left off.
UniProt O75800: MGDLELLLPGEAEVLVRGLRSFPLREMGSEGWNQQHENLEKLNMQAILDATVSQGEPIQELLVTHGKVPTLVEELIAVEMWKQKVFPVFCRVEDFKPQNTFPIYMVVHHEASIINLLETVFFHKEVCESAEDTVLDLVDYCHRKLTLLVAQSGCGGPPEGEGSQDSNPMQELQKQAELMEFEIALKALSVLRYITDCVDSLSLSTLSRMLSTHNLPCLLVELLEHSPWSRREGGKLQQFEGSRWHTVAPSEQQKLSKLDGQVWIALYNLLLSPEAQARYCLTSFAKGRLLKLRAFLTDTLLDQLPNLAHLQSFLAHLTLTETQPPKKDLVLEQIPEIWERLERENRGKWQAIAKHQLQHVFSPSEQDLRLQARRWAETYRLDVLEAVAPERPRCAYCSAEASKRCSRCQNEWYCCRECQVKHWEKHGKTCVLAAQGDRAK

Molecular target: GST-ZMYND10, full-length protein (UniProt O75800)
Test: pull-down; purified GST-ZMYND10 (full length) or GST-MYND as bait; lysates from mTECs; immunoblot; only the target purified
Details: not given

Binder	binding
DNAI1, endogenous in mouse tracheal epithelial cells (protein, UniProt Q8C0M8 1-701) MPSKQIRKQSISVTRGARRRDEDSGTDVGEGTDEWSQSKATVRPPDQLELTDAELKEEFTRILTANNPHAPQNIVRYSFKEGTYKLIGFVNQMAVHFSQVGNLIPKDSDEGRRQHYRDEMVAGSQESIKVVTSEAENLEEEEEPKEGEGEAEAEAEAGSQTDIPAAAETTEKVIEEELMAPVQPKERKLTNQFNFSERASQTFNNPLRDRECQMEPPPRTNFSATANQWEIYDAYVDELEKQEKTKEKEKAKTPVAKKTEKMAMRKLTSMESQSDDITKVTQAAKIVERMVNQNTYDDVAQDFKYYEDTADEYRDQEGTLLPLWKFQNDKAKRLAVTALCWNPKYKDLFAVGHGSYDFMKQSRGMLLLYSMKNPSFPEYMFSSESGIMCLDVHVDHPYLVVVGYYDGNVAIYNLKKPHSQPCFRSTSKSGKHTDPVWQVKWQKDDMDHNLNFFSVSSDGRIVSWTLVKSELVHIDIIKLKTEGSTTEIPEGLQLHTVGCGTAFDFHKEIDYMFLVGTEEGKIYKCSKSYSSQFLDTYDAHNMAVDAVLWNPYHTKVFMSCSSDWTVKIWDHTIKTPMFIYDLNSAVGDVAWAPYSSTVFAAVTTDGKAHVFDLAVNKYEAICNQPVVAKKKNKITHVQFNPIHPIIIVGDDRGHIICLKLSPNLRKMPKEKKGQEVQKGPAVEIAKLDKLLNLVREVKTKT	binds
IQUB, endogenous in mouse tracheal epithelial cells (protein, UniProt Q8CDK3 1-788) MSDPEEERVADSTAHYEEAGKVISIPRPSDEAEGSDVMPEQDDEVQELTTESEENVERHSEFSLSTPKSDDSKPREEVTSLGSASGSQDQDYRLLDYQKGEDDELLFLHKIKAIKETLQTSVRESIATVKIVLIPAGQEIIMPFRVDAPFRFLKEHFAHLLHIPHYVLQITHEGIIVGNNESLIQYGIKPQEIVQVEVFSTLPDQYPVRRIEGLSEGSQIITVTIQTSIDRYEEVAVEIIKSDFHKPFLGGFRHKITGLEYHNAGTQTVPRKIPEKDNLFCRDTQTVFQKKKLQQTTNTTSTQMTKIGVYVSNMTDKLLKPGNYFSAAEYHARRLHAVIVIQTSYRRWHAKRYVESLRKQKKLRLEWEEEQELLKIQEKEEWIRMDYYRRHNPKTTEDFELLYNALELWRQEEVEQICHYSSEAERKAALCELLEKETQMIASIGRHRSAARMERQDAAIQAFLDKCSAPNVWRRGDGKTIEMDTQFTIRARELQSIYKCILLKDLSQDERLDILLTLKHTVKEHECKLTQEILELIDREVDLMMRGVKPHNLEGLRKRITTLFIHYIKTPLFNPEVAKYLKVPQDPLKFYDTIYFCHSCQNYLPSVEFSVSPTSHRVYRCRHCINLENETQRRESFLKYKCLLQRLYYSEADYGDNSQIAFLMQLQDIKYLTENIWASQSALSAWDDLNDLVMVRWDKHVEWSPWNCILLTKDESTAHLRLPSIEKGYGHHFVHKIKHKHILAKNYFSQIPTLASLILNDDEVEDIRSKHSTKSPPKIIITRRIQPH	binds
LRRC6, endogenous in mouse tracheal epithelial cells (protein, UniProt O88978 1-473) MGRITEDLIRRNAEHNDCVIFSLEELSLHQQEIERLEHIDKWCRDLKILYLQNNLIGKIENVSKLKKLEYLNLALNNIERIENLEGCEWLTKLDLTVNFIGELSSVKTLTHNIHLKELFLMGNPCADFDGYRQFVVVTLQQLKWLDGKEIERSERIQALQNYTSVEQQIREQEKAYCLRRAKEKEEAQRKLEEENESEDKKKSSTGFDGHWYTDIHTACPSATENQDYPQVPETQEEQHNTKESDDIEDDLAFWNKPSLFTPESRLETLRHMEKQRKAQDKLSEKKKKAKPPRTLITEDGKVLNVNEAKLDFSLKDDEKHNQIILDLAVYRYMDTSLIEVDVQPTYVRVMVKGKPFQLALSTEVQPDRSSAKRSQTTGHLLICMPKVGEMITGGQRTPTSVKTTSTSSREQTNPRKKQIERLEVDPSKHSCPDVSTIVQEKRHRPKRMESQPRDEPSEEDPDFEDNPEVPPLI	binds

Molecular target: FLAG-tagged ZMYND10 (zinc finger MYND-type-containing 10) (UniProt O75800)
Test: co-IP; constructs cotransfected into HEK 293T cells; immunoprecipitated with anti-FLAG M2 or anti-c-Myc affinity gels, immunoblot
Details: not given

Binder	binding
Myc-C21ORF59 (chromosome 21 open reading frame 59) (protein, UniProt P57076 1-290) MVLLHVKRGDESQFLLQAPGSTELEELTVQVARVYNGRLKVQRLCSEMEELAEHGIFLPPNMQGLTDDQIEELKLKDEWGEKCVPSGGAVFKKDDIGRRNGQAPNEKMKQVLKKTIEEAKAIISKKQVEAGVCVTMEMVKDALDQLRGAVMIVYPMGLPPYDPIRMEFENKEDLSGTQAGLNVIKEAEAQLWWAAKELRRTKKLSDYVGKNEKTKIIAKIQQRGQGAPAREPIISSEEQKQLMLYYHRRQEELKRLEENDDDAYLNSPWADNTALKRHFHGVKDIKWRPR	binds
DYX1C1-V5 (dyslexia susceptibility 1 candidate 1) (protein, UniProt Q8WXU2 1-420) MPLQVSDYSWQQTKTAVFLSLPLKGVCVRDTDVFCTENYLKVNFPPFLFEAFLYAPIDDESSKAKIGNDTIVFTLYKKEAAMWETLSVTGVDKEMMQRIREKSILQAQERAKEATEAKAAAKREDQKYALSVMMKIEEEERKKIEDMKENERIKATKALEAWKEYQRKAEEQKKIQREEKLCQKEKQIKEERKKIKYKSLTRNLASRNLAPKGRNSENIFTEKLKEDSIPAPRSVGSIKINFTPRVFPTALRESQVAEEEEWLHKQAEARRAMNTDIAELCDLKEEEKNPEWLKDKGNKLFATENYLAAINAYNLAIRLNNKMPLLYLNRAACHLKLKNLHKAIEDSSKALELLMPPVTDNANARMKAHVRRGTAFCQLELYVEGLQDYEAALKIDPSNKIVQIDAEKIRNVIQGTELKS	binds
Myc-tagged IQUB (IQ motif and ubiquitin domain-containing protein) (protein, UniProt Q8NA54 1-791) MSNQQEKYEAQNIVNSTEESDDAFDTVTIPVPSEEPQESDQTEEHESGIEQFSESHAIHVEEQSDQSFSSLEPDNEQLMEEVISPRQVSYTPQHHEKQYAMQRPNDDSLAFLDKIKSVKESLQESVEDSLATVKVVLIPVGQEIVIPFKVDTILKYLKDHFSHLLGIPHSVLQIRYSGKILKNNETLVQHGVKPQEIVQVEIFSTNPDLYPVRRIDGLTDVSQIITVTVQTGLDQYQQVPVEIVKSDFHKPFLGGFRHKVTGVEYHNAGTQTVPKRIPERLSIFCRDTQTVFQKKNLQQTTNTTSTQMTNIGVYVSNMTDKLVTPGKYFSAAEYHAQRLKAVIVIQTYYRQWHAKIFVENLRRQKSLRLEWETQQELRKIREKEEWIKLDYHRRHNPKTNEDFEFLYNALEFWRQEELTRINQSFTGAERKAALCELLEKETQIIASIGRHRYIAYMANQEAAIQAFLDKCSAPKIWRTPNGKTIEMDTQFTIRARELQNIYKCIMLKNISQDERLDVLLTLKHTVKEHECKLTQEILELIDREVDLMMRGVKHHNLEGLRKRIATLFFHYIKTPLFNPEVAKYLKVPQDPLKFYKKIYFCHSCQLYLPSTEFSVSSTSRRIYRCRNCINLQNEAQKRESFLKYKCLLQQLYYTEADYEDDSKIAFLMQLQDIQYLTENIWASQSVLSACDNLSDLVMVRWNKSLEWSPWNCILLTKDEAAAHLKLTSIEEGYERSFIHKIKHKHILAKNYFSQVPVLASFILDDGEIDEIRWKYHSDTTPKIIESQRPPH	binds
Myc-TCTEX1D1 (Tctex1 domain-containing D1) (protein, UniProt Q8N7M0 1-179) MMMSDNAKGRAAHSWKKRGSISSLSNHEFWRKEIHGRIKDSMSTVSYMEEPSQRDDISRLTVQMENTYQLGPPKHFPVVTVNHILKDVVTSYLQVEEYEPELCRQMTKTISEVIKAQVKDLMIPRYKLIVIVHIGQLNRQSILIGSRCLWDPKSDTFSSYVFRNSSLFALANVYAVYLE	binds
Myc-DNAI2 (dynein axonemal intermediate chain 2) (protein, UniProt Q9GZS0 1-605) MEIVYVYVKKRSEFGKQCNFSDRQAELNIDIMPNPELAEQFVERNPVDTGIQCSISMSEHEANSERFEMETRGVNHVEGGWPKDVNPLELEQTIRFRKKVEKDENYVNAIMQLGSIMEHCIKQNNAIDIYEEYFNDEEAMEVMEEDPSAKTINVFRDPQEIKRAATHLSWHPDGNRKLAVAYSCLDFQRAPVGMSSDSYIWDLENPNKPELALKPSSPLVTLEFNPKDSHVLLGGCYNGQIACWDTRKGSLVAELSTIESSHRDPVYGTIWLQSKTGTECFSASTDGQVMWWDIRKMSEPTEVVILDITKKEQLENALGAISLEFESTLPTKFMVGTEQGIVISCNRKAKTSAEKIVCTFPGHHGPIYALQRNPFYPKNFLTVGDWTARIWSEDSRESSIMWTKYHMAYLTDAAWSPVRPTVFFTTRMDGTLDIWDFMFEQCDPTLSLKVCDEALFCLRVQDNGCLIACGSQLGTTTLLEVSPGLSTLQRNEKNVASSMFERETRREKILEARHREMRLKEKGKAEGRDEEQTDEELAVDLEALVSKAEEEFFDIIFAELKKKEADAIKLTPVPQQPSPEEDQVVEEGEEAAGEEGDEEVEEDLA	no binding

Molecular target: FLAG-tagged ZMYND10 (zinc finger MYND-type-containing 10), O75800
Test: as above
Details: remark: other sources report otherwise

Binder	binding
Myc-DNAI1 (dynein axonemal intermediate chain 1), Q9UI46 1-699 (protein) MIPASAKAPHKQPHKQSISIGRGTRKRDEDSGTEVGEGTDEWAQSKATVRPPDQLELTDAELKEEFTRILTANNPHAPQNIVRYSFKEGTYKPIGFVNQLAVHYTQVGNLIPKDSDEGRRQHYRDELVAGSQESVKVISETGNLEEDEEPKELETEPGSQTDVPAAGAAEKVTEEELMTPKQPKERKLTNQFNFSERASQTYNNPVRDRECQTEPPPRTNFSATANQWEIYDAYVEELEKQEKTKEKEKAKTPVAKKSGKMAMRKLTSMESQTDDLIKLSQAAKIMERMVNQNTYDDIAQDFKYYDDAADEYRDQVGTLLPLWKFQNDKAKRLSVTALCWNPKYRDLFAVGYGSYDFMKQSRGMLLLYSLKNPSFPEYMFSSNSGVMCLDIHVDHPYLVAVGHYDGNVAIYNLKKPHSQPSFCSSAKSGKHSDPVWQVKWQKDDMDQNLNFFSVSSDGRIVSWTLVKRKLVHIDVIKLKVEGSTTEVPEGLQLHPVGCGTAFDFHKEIDYMFLVGTEEGKIYKCSKSYSSQFLDTYDAHNMSVDTVSWNPYHTKVFMSCSSDWTVKIWDHTIKTPMFIYDLNSAVGDVAWAPYSSTVFAAVTTDGKAHIFDLAINKYEAICNQPVAAKKNRLTHVQFNLIHPIIIVGDDRGHIISLKLSPNLRKMPKEKKGQEVQKGPAVEIAKLDKLLNLVREVKIKT	binds
